{"source": "PubChem BioAssay AID686971", "about": "(National Center for Advancing Translational Sciences (NCATS), 2013)", "note": "Among all 360,000 compounds or so, about 7,500 (2.1%) were called active. Inconclusive results, whose numbers are uncertain, are shown with a selection of clear calls. Calls come from the whole dose curve; as a rule, active = well fitted cell-killing curve with a large enough effect; inconclusive = small, poorly fitted or top-dose-only effect, or effect the other way, or another doubt; inactive = no such curve, though single readings can be large or run the other way. Potencies of inconclusive entries are left out as doubtful fits. Potency is the fitted concentration of half-maximal effect; tags give direction and shape of the fitted curve."}
{"test": "qHTS for induction of synthetic lethality in tumor cells producing 2HG: qHTS for the HT-1080-IDH1KD cell line", "conditions": "HT-1080 IDH1 knockdown viability, ATP luminescence, 48 h; series mostly up to 46.1 µM", "procedure,_shortened": "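CellTiter-Glo luminescence after 48 h compound exposure at 37 degrees C of IDH1-knockdown HT-1080 cells in 5% FBS RPMI. %Activity scaled between DMSO wells and cell-free media wells, with curves fitted and assigned curve classes.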"}
{"smiles": "O=c1c(-c2ccco2)[n+]([O-])c2ccccc2n1OCc1c(F)cccc1F", "Potency": "inactive"}
{"smiles": "O=C(c1ccoc1)N1CCN(c2cc(-c3ccco3)nc3cc(-c4ccccc4)nn23)CC1", "Potency": "inconclusive [cytotoxic, single point]"}
{"smiles": "CC(C)C(=O)N[C@@H]1c2ccccc2CC[C@H]1OCc1ccccc1", "Potency": "inactive"}
{"smiles": "CCCCCCn1c(=O)n2n(c1=O)[C@@H]1CN(S(=O)(=O)c3ccc(C)cc3)C[C@]1(O)[C@@H](OC(=O)Nc1cccs1)C2", "Potency": "inconclusive [cytotoxic, single point]"}
{"smiles": "CC(C)C[C@@H](CNCC(=O)[C@H](Cc1ccccc1)NC(=O)c1[nH]cnc1C(=O)N[C@@H](C)CN)NC(=O)c1nc[nH]c1C(=O)N[C@@H](C)C(=O)O", "Potency": "inactive"}
{"smiles": "O=C(N[C@H]1CCC(=O)N(CCSc2ccc(Br)cc2)CC1)OCc1ccccc1", "Potency": "inconclusive [cytotoxic, single point]"}
{"smiles": "COc1ccc(S(=O)(=O)N2CCN(c3ccccc3)CC2)cc1", "Potency": "inactive"}
{"smiles": "Cc1cccc(S(=O)(=O)NC(=O)C2(C)CCN2C(=O)C2(c3ccc(Cl)cc3)CCC2)c1", "note": "(stereo not given)", "Potency": "inactive"}
{"smiles": "Cc1cc2ccccn2c1C(=O)c1cccc([N+](=O)[O-])c1", "Potency": "inconclusive [cytotoxic, single point]"}
{"smiles": "O=C(Nc1ccc(Cl)c(S(=O)(=O)N2CCCCC2)c1)c1ccco1", "Potency": "inactive"}
{"smiles": "CCN(CC)S(=O)(=O)c1ccc(N2CCN(S(=O)(=O)c3ccccc3)CC2)nc1", "Potency": "inconclusive [cytotoxic, full curve, poor fit]"}
{"smiles": "CC(C)c1ccc(NC(=O)CN2C(=O)NC(C)(C3CC3)C2=O)cc1", "note": "(stereo not given)", "Potency": "inactive"}
{"smiles": "COc1cc(OC)c(OC)cc1/C=C1\\CCC/C(=C\\c2cc(OC)c(OC)cc2OC)C1=O", "Potency": "inconclusive [cytotoxic, single point]"}
{"smiles": "Cc1cc(C)c(S(=O)(=O)Nc2ccc3c(c2)CCC3)c(C)c1", "Potency": "inconclusive [cytotoxic, single point]"}
{"smiles": "C=C1CC2(CC(c3ccccc3)OC(c3ccccc3)C2)OC1=O", "note": "(stereo not given)", "Potency": "active: 16.4 µM"}
{"smiles": "COc1cc(C2Oc3ccccc3C=C2[N+](=O)[O-])cc(OC)c1OC", "note": "(stereo not given)", "Potency": "active: 5.8 µM"}
{"smiles": "Cc1ccc(OCC(=O)N(Cc2cccc(Cl)c2)C2CCS(=O)(=O)C2)cc1C", "note": "(stereo not given)", "Potency": "inactive"}
{"smiles": "Cc1cccc2cc(C#N)c(SCC(=O)N3CC(=O)Nc4ccccc43)nc12", "Potency": "inconclusive [cytotoxic, full curve]"}
{"smiles": "c1ccc(-c2nnsc2-c2ncc[nH]2)cc1", "Potency": "inconclusive [rising, single point]"}
{"smiles": "CC(NS(=O)(=O)c1ccc(Cl)cc1)C(=O)OCC(=O)Nc1ccc(N(C)C)cc1", "note": "(stereo not given)", "Potency": "inactive"}
{"smiles": "Cc1ccc(C)c(NC(=S)NCCc2ccc(F)cc2)c1", "Potency": "inactive"}
{"smiles": "Cc1ccsc1C(=O)C1CCCN(Cc2cccn2-c2ccc(Cl)cn2)C1", "note": "(stereo not given)", "Potency": "inconclusive [cytotoxic, single point]"}
{"smiles": "CC(C)(C)c1ccc(SC2=C[C@@]3(O)CC[C@@H](O)[C@@](Sc4ccc(C(C)(C)C)cc4)(C2=O)[C@H]3O)cc1", "Potency": "active: 14.6 µM"}
{"smiles": "CN(C)Cc1ncccc1Oc1nc2cc(-c3cccc(Cl)c3)sc2c(=O)n1C", "Potency": "inconclusive [cytotoxic, single point]"}
{"smiles": "COc1cccc(C(=O)Nc2ccc(N3CCCC3)cc2)c1", "Potency": "active: 18.4 µM"}
{"smiles": "CCN(CC)S(=O)(=O)c1ccc(NC(=O)CSc2nnc(-c3cccc(OC)c3)n2C)cc1", "Potency": "inconclusive [cytotoxic, single point]"}
{"smiles": "CCOC(=O)c1c(NC(=O)CN2CCCc3ccccc32)sc(C)c1C", "Potency": "inconclusive [cytotoxic, single point]"}
{"smiles": "COc1ccc(Nc2c(CCc3ccccc3)nc3nc(C)cc(C)n23)cc1", "Potency": "inconclusive [cytotoxic, single point]"}
{"smiles": "Cc1nc(N)nc(N)c1CCCc1ccc(Cl)c(Cl)c1", "Potency": "active: 1.16 µM"}
{"smiles": "CCCn1c(SCC(=O)Nc2nnc(-c3ccccc3)s2)nnc1-c1ccccn1", "Potency": "inactive"}
{"smiles": "CCCC(=O)N1CCC1(C)C(=O)Nc1cc(OC)ccc1OC", "note": "(stereo not given)", "Potency": "inactive"}
{"smiles": "COc1cc(C(=O)Nn2c(C)nc3ccccc3c2=O)cc(OC)c1OC", "Potency": "inactive"}
{"smiles": "COCCNc1nc(Nc2ccc(C)cc2C)c2sccc2n1", "Potency": "inconclusive [cytotoxic, full curve]"}
{"smiles": "COCCn1c(C)cc(C(=O)COC(=O)c2[nH]c(C)c(C(C)=O)c2C)c1C", "Potency": "inconclusive [cytotoxic, single point]"}
{"smiles": "Cc1ccnc2nc(C(=O)Nc3ccc(S(=O)(=O)N4CCCC4)cc3)nn12", "Potency": "inactive"}
{"smiles": "O=c1[nH]c(C2CCCN(S(=O)(=O)c3ccccc3)C2)nc2c1nnn2Cc1cccc(Cl)c1", "note": "(stereo not given)", "Potency": "inconclusive [cytotoxic, single point]"}
{"smiles": "COc1cc(CN2CCN(c3cccc(C)c3C)CC2)cc(Br)c1O", "Potency": "inconclusive [cytotoxic, single point]"}
{"smiles": "CC1(C(=O)NCCC(F)(F)F)Cc2c(-c3cccc(C(F)(F)F)c3)ccnc2O1", "note": "(stereo not given)", "Potency": "active: 5.8 µM"}
{"smiles": "Cc1cc(C(=O)NNc2ccccc2F)no1", "Potency": "active: 2.59 µM"}
{"smiles": "Cc1ncc(CO)c(/C=N/NC(=O)c2ccccc2Br)c1O", "Potency": "inconclusive [cytotoxic, partial curve]"}
{"smiles": "CC(OC(=O)c1snc(C(=O)NC2CCCCC2)c1N)C(=O)NC(C)(C)C", "note": "(stereo not given)", "Potency": "inconclusive [cytotoxic, single point]"}
{"smiles": "NNC(=O)c1cnn(Cc2ccccc2)c1N", "Potency": "inconclusive [cytotoxic, single point]"}
{"smiles": "COC(=O)[C@@]1(Cc2ccc(F)cc2)[C@H]2c3cc(C(=O)N4CCCC4)n(Cc4ccccc4)c3C[C@H]2CN1C(=O)c1ccccc1", "Potency": "inconclusive [cytotoxic, single point]"}
{"smiles": "COc1ccc(CN2CCN(C(=O)c3ccc4nc(N5CCOCC5)sc4c3)CC2)c(OC)c1OC", "Potency": "inactive"}
{"smiles": "NS(=O)(=O)c1ccc(F)c(C(=O)O)c1", "Potency": "inactive"}
{"smiles": "CC(C)[C@H](N)C(=O)N[C@H]1CCC2C3CC=C4C[C@@H](O)CC[C@]4(C)C3CC[C@@]21C", "note": "(stereo not given in full)", "Potency": "inconclusive [cytotoxic, single point]"}
{"smiles": "CCOC(=O)Nc1ccc(NCc2ccc(F)cc2)nc1N", "Potency": "inconclusive [cytotoxic, partial curve]"}
{"smiles": "Cc1nc(NC(=O)COC(=O)CCS(=O)(=O)c2ccccc2Cl)c(Cl)cc1Cl", "Potency": "inactive"}
{"smiles": "O=C(NCCCc1ccccc1)c1c(O)nc2sccn2c1=O", "Potency": "inconclusive [cytotoxic, single point]"}
{"smiles": "c1ccc2c(c1)OCCOCCOCCOCCOCCOc1ccccc1OCCOCCOCCO2", "Potency": "inconclusive [cytotoxic, single point]"}
{"smiles": "Cc1cccc(-c2ccc(NC(=O)C3CCN(CC4CC4)CC3)cc2)c1", "Potency": "inconclusive [cytotoxic, single point]"}
{"smiles": "CCCC(=O)c1cc(F)c(N2CCOCC2)cc1C", "Potency": "inconclusive [rising, single point]"}
{"smiles": "COc1ccc(OC)c(NC(=O)C2CCCN(S(=O)(=O)c3cccc4nsnc34)C2)c1", "note": "(stereo not given)", "Potency": "inconclusive [cytotoxic, single point]"}
{"smiles": "CCCCNC(=O)c1ccc(N2CCOCC2)c(NS(=O)(=O)c2ccc(OC)cc2)c1", "Potency": "inconclusive [cytotoxic, single point]"}
{"smiles": "CCN1C(=O)C(CC(=O)Nc2ccc(Br)cc2)N(CCCc2ccccc2)C1=S", "note": "(stereo not given)", "Potency": "inconclusive [cytotoxic, single point]"}
{"smiles": "Cc1ccc(S(=O)(=O)c2nc(-c3ccccc3)oc2NCc2cccnc2)cc1", "Potency": "inconclusive [cytotoxic, partial curve]"}
{"smiles": "COCc1cccc(-c2csc(C(C)(O)c3cccc(OC)c3)n2)c1", "note": "(stereo not given)", "Potency": "inconclusive [cytotoxic, partial curve]"}
{"smiles": "COc1ccc(C)c2sc(N(CCN(C)C)C(=O)c3ccc4ccccc4c3)nc12", "Potency": "inactive"}
{"smiles": "CC[n+]1c(/C=C/c2ccc(N(C)C)cc2)ccc2ccccc21", "Potency": "active: 10.3 µM"}
{"smiles": "C=CCOc1ccc(/C=N/N2C(=O)C(CC(=O)Nc3ccc(F)cc3F)SC2=NC)cc1", "note": "(stereo not given)", "Potency": "inconclusive [cytotoxic, single point]"}
{"smiles": "CC(=O)OC1CCC2(C)C(CCC3C4CC=C(C(C)=O)C4(C)OC(=O)CC32)C1", "note": "(stereo not given)", "Potency": "active: 10.3 µM"}
{"smiles": "CN(C)/C=N/C(=S)Nc1ccc(Br)cc1F", "Potency": "inactive"}
{"smiles": "CN1CCN(c2nc(-c3ccc(Cl)cc3Cl)nc3ccccc23)CC1", "Potency": "inconclusive [cytotoxic, single point]"}
{"smiles": "COc1ccc(C2COc3cc(O)ccc3C2)c(OC)c1O", "note": "(stereo not given)", "Potency": "inconclusive [cytotoxic, single point]"}
{"smiles": "Cc1ccc2c(c1)/C(=C/c1ccccc1C)C(=O)N2", "Potency": "inconclusive [cytotoxic, partial curve, poor fit]"}
{"smiles": "Cc1cc(S(=O)(=O)N(Cc2cccs2)Cc2ccccc2F)ccc1-n1cnnn1", "Potency": "inactive"}
{"smiles": "Cc1cc(C)cc(C(O)c2ncc(-c3cccc(C(F)(F)F)c3)[nH]2)c1", "note": "(stereo not given)", "Potency": "inconclusive [cytotoxic, single point]"}
{"smiles": "C#CC[N+](C)(C)C(C#Cc1ccccc1)CC=C", "note": "(stereo not given)", "Potency": "inconclusive [cytotoxic, single point]"}
{"smiles": "CC1=C(C(=O)OC2CCCC2)C(c2coc3ccccc3c2=O)C2=C(CC(C)(C)CC2=O)N1", "note": "(stereo not given)", "Potency": "inconclusive [cytotoxic, single point]"}
{"smiles": "OC(c1cc(F)cc(Cl)c1)c1ncc(-c2ccccc2Cl)[nH]1", "note": "(stereo not given)", "Potency": "inconclusive [cytotoxic, single point]"}
